The supplement of paper PMC12067230
This is a noisy data set.

B1: library; a variant is named by its letters at X, in order (parent)
chain: EASNCFAIRHFENKFAVETLICXXXXXXXXX

Variants of: B1
Assay: amyloid nucleation score relative to library mode (yeast Sup35 reporter selection) (log enrichment difference); higher = more amyloid nucleation; sequences are the first 22 residues of the Bri2 peptide extended by up to 12 random residues
Details: random library (experiment): 2;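 active = nucleation score significantly above 0 at FDR 0.05; inactive = not significantly above 0 or absent from output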
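Further: [psi-pin-] Saccharomyces cerevisiae expressing SupN fusions, induced by 100 µM Cu2SO4, selected 7 d at 30 °C without adenine and uracil, scored by deep sequencing of output versus input.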

Variant	amyloid nucleation score
EASNCFAIRHFENKFAVETLICFFCWVSSSR [FFCWVSSSR]	3.03
EASNCFAIRHFENKFAVETLICPFISMYRGV [PFISMYRGV]	5.38
EASNCFAIRHFENKFAVETLICQFLDSFLIQ [QFLDSFLIQ]	inactive
EASNCFAIRHFENKFAVETLICIFVTFGIAI [IFVTFGIAI]	2.84
EASNCFAIRHFENKFAVETLICDGIMFTSMV [DGIMFTSMV]	0.357
EASNCFAIRHFENKFAVETLICVGIVSTRRQ [VGIVSTRRQ]	3.66
EASNCFAIRHFENKFAVETLICFGLRDSTAN [FGLRDSTAN]	7.33
EASNCFAIRHFENKFAVETLICIGMSPSPFR [IGMSPSPFR]	1.82
EASNCFAIRHFENKFAVETLICTGRDEDSVE [TGRDEDSVE]	inactive
EASNCFAIRHFENKFAVETLICYGSHGSVWH [YGSHGSVWH]	7.65
EASNCFAIRHFENKFAVETLICMGSRTRADW [MGSRTRADW]	2.48
EASNCFAIRHFENKFAVETLICFHQIVMDYI [FHQIVMDYI]	-0.00995
EASNCFAIRHFENKFAVETLICTHVRDLEER [THVRDLEER]	inactive
EASNCFAIRHFENKFAVETLICHIFTFVVCW [HIFTFVVCW]	0.511
EASNCFAIRHFENKFAVETLICNILSGQTKC [NILSGQTKC]	inactive
EASNCFAIRHFENKFAVETLICCILVIDRPF [CILVIDRPF]	4.76
EASNCFAIRHFENKFAVETLICEINSDICFS [EINSDICFS]	inactive
EASNCFAIRHFENKFAVETLICGISVMFCRA [GISVMFCRA]	7.15
EASNCFAIRHFENKFAVETLICKIYILLGAV [KIYILLGAV]	inactive
EASNCFAIRHFENKFAVETLICNKEFYELCT [NKEFYELCT]	inactive
EASNCFAIRHFENKFAVETLICMKTCFYYVV [MKTCFYYVV]	-0.793
EASNCFAIRHFENKFAVETLICCKTCSRAND [CKTCSRAND]	4.19
EASNCFAIRHFENKFAVETLICLKTLNTLFD [LKTLNTLFD]	1.95

Variant	amyloid nucleation score
EASNCFAIRHFENKFAVETLICCKYSNIVLT [CKYSNIVLT]	inactive
EASNCFAIRHFENKFAVETLICKLDYIYLVT [KLDYIYLVT]	inactive
EASNCFAIRHFENKFAVETLICRLEAREALP [RLEAREALP]	inactive
EASNCFAIRHFENKFAVETLICTLETCVTSM [TLETCVTSM]	inactive
EASNCFAIRHFENKFAVETLICRLMLHLNVR [RLMLHLNVR]	inactive
EASNCFAIRHFENKFAVETLICCLRNIRGNW [CLRNIRGNW]	1.32
EASNCFAIRHFENKFAVETLICLLSFCRMEC [LLSFCRMEC]	inactive
EASNCFAIRHFENKFAVETLICWLSISLLFP [WLSISLLFP]	inactive
EASNCFAIRHFENKFAVETLICGLVGRSARQ [GLVGRSARQ]	3.48
EASNCFAIRHFENKFAVETLICFLWVSFRTM [FLWVSFRTM]	inactive
EASNCFAIRHFENKFAVETLICNLYKTFDYH [NLYKTFDYH]	5.54
EASNCFAIRHFENKFAVETLICRMCDSSDLI [RMCDSSDLI]	inactive
EASNCFAIRHFENKFAVETLICYMCFDTVFC [YMCFDTVFC]	8.22
EASNCFAIRHFENKFAVETLICYMIRFIFLR [YMIRFIFLR]	inactive
EASNCFAIRHFENKFAVETLICRMKPFLTVG [RMKPFLTVG]	inactive
EASNCFAIRHFENKFAVETLICLMMYHIVRG [LMMYHIVRG]	0.968
EASNCFAIRHFENKFAVETLICTMNRKGRVV [TMNRKGRVV]	inactive
EASNCFAIRHFENKFAVETLICNMPGIFLSY [NMPGIFLSY]	5.21
EASNCFAIRHFENKFAVETLICWMWFLCPEM [WMWFLCPEM]	4.2
EASNCFAIRHFENKFAVETLICRNHECFCGE [RNHECFCGE]	inactive
EASNCFAIRHFENKFAVETLICINLCYCRTG [INLCYCRTG]	4.53
EASNCFAIRHFENKFAVETLICVNVRYKYLA [VNVRYKYLA]	inactive
EASNCFAIRHFENKFAVETLICYQHFSCKCL [YQHFSCKCL]	4.5

Variant	amyloid nucleation score
EASNCFAIRHFENKFAVETLICFQLVLIIIF [FQLVLIIIF]	-0.0488
EASNCFAIRHFENKFAVETLICMQPMRGRCC [MQPMRGRCC]	inactive
EASNCFAIRHFENKFAVETLICPQSLICQQS [PQSLICQQS]	inactive
EASNCFAIRHFENKFAVETLICHRDSAKYDV [HRDSAKYDV]	inactive
EASNCFAIRHFENKFAVETLICYRDYQMFTN [YRDYQMFTN]	inactive
EASNCFAIRHFENKFAVETLICCREVNCIRA [CREVNCIRA]	inactive
EASNCFAIRHFENKFAVETLICPRFLAIIVI [PRFLAIIVI]	inactive
EASNCFAIRHFENKFAVETLICIRFYVCGAL [IRFYVCGAL]	4.05
EASNCFAIRHFENKFAVETLICGRGASCPRM [GRGASCPRM]	2.42
EASNCFAIRHFENKFAVETLICYRGIEHGSH [YRGIEHGSH]	3.73
EASNCFAIRHFENKFAVETLICKRHCFTAWA [KRHCFTAWA]	inactive
EASNCFAIRHFENKFAVETLICQRHHTVLCF [QRHHTVLCF]	inactive
EASNCFAIRHFENKFAVETLICRRLAVSNMG [RRLAVSNMG]	inactive
EASNCFAIRHFENKFAVETLICRRMRVGMLL [RRMRVGMLL]	inactive
EASNCFAIRHFENKFAVETLICHRSYPSYSD [HRSYPSYSD]	inactive
EASNCFAIRHFENKFAVETLICVRTISFITL [VRTISFITL]	2.09
EASNCFAIRHFENKFAVETLICWRVRRLINR [WRVRRLINR]	inactive
EASNCFAIRHFENKFAVETLICGRVSGGVGM [GRVSGGVGM]	inactive
EASNCFAIRHFENKFAVETLICVSCAGCSTC [VSCAGCSTC]	8.4
EASNCFAIRHFENKFAVETLICVSDWSNCGD [VSDWSNCGD]	5.08
EASNCFAIRHFENKFAVETLICESFSTVWAI [ESFSTVWAI]	inactive
EASNCFAIRHFENKFAVETLICNSKGALVFL [NSKGALVFL]	5.15
EASNCFAIRHFENKFAVETLICFSLSNWDIP [FSLSNWDIP]	5.98

Variant	amyloid nucleation score
EASNCFAIRHFENKFAVETLICFSMHVCVKL [FSMHVCVKL]	inactive
EASNCFAIRHFENKFAVETLICESRKARSRL [ESRKARSRL]	1.59
EASNCFAIRHFENKFAVETLICKSVDNKSYR [KSVDNKSYR]	inactive
EASNCFAIRHFENKFAVETLICFSVSLCLFN [FSVSLCLFN]	7.96
EASNCFAIRHFENKFAVETLICYTASLMSIT [YTASLMSIT]	inactive
EASNCFAIRHFENKFAVETLICTTCLFNARG [TTCLFNARG]	8.11
EASNCFAIRHFENKFAVETLICVTCSEGNGF [VTCSEGNGF]	6.7
EASNCFAIRHFENKFAVETLICYTDCCCDNG [YTDCCCDNG]	7.75
EASNCFAIRHFENKFAVETLICMTDFYGPMV [MTDFYGPMV]	inactive
EASNCFAIRHFENKFAVETLICDTFNYNKSC [DTFNYNKSC]	6.44
EASNCFAIRHFENKFAVETLICHTMLIFNVN [HTMLIFNVN]	inactive
EASNCFAIRHFENKFAVETLICMTRRSYYGV [MTRRSYYGV]	2.26
EASNCFAIRHFENKFAVETLICFVCYPLRVV [FVCYPLRVV]	inactive
EASNCFAIRHFENKFAVETLICRVDVVYRIR [RVDVVYRIR]	inactive
EASNCFAIRHFENKFAVETLICIVGFSRKIV [IVGFSRKIV]	inactive
EASNCFAIRHFENKFAVETLICIVILWVVAR [IVILWVVAR]	5.7
EASNCFAIRHFENKFAVETLICYVKPNGVIW [YVKPNGVIW]	1.32
EASNCFAIRHFENKFAVETLICFVKVFSIFL [FVKVFSIFL]	inactive
EASNCFAIRHFENKFAVETLICGVKWFTCKV [GVKWFTCKV]	inactive
EASNCFAIRHFENKFAVETLICTVRMVCLLV [TVRMVCLLV]	inactive
EASNCFAIRHFENKFAVETLICLVRSGYLMR [LVRSGYLMR]	inactive
EASNCFAIRHFENKFAVETLICKVSINISVV [KVSINISVV]	6.04
EASNCFAIRHFENKFAVETLICCVSQGSTFG [CVSQGSTFG]	8.4

Variant	amyloid nucleation score
EASNCFAIRHFENKFAVETLICWVSYFLVLG [WVSYFLVLG]	inactive
EASNCFAIRHFENKFAVETLICVVTVGNISK [VVTVGNISK]	5.47
EASNCFAIRHFENKFAVETLICTVYCRFHST [TVYCRFHST]	2.35
EASNCFAIRHFENKFAVETLICNVYVSTMFL [NVYVSTMFL]	8.49
EASNCFAIRHFENKFAVETLICVWFRTWNYH [VWFRTWNYH]	inactive
EASNCFAIRHFENKFAVETLICGWGIGQNGC [GWGIGQNGC]	7.49
EASNCFAIRHFENKFAVETLICYWKSCIMTA [YWKSCIMTA]	inactive
EASNCFAIRHFENKFAVETLICDWSLTRLVL [DWSLTRLVL]	inactive
EASNCFAIRHFENKFAVETLICLYAKDWLMR [LYAKDWLMR]	inactive
EASNCFAIRHFENKFAVETLICAYDIICKTC [AYDIICKTC]	inactive
EASNCFAIRHFENKFAVETLICRYDSGTKKE [RYDSGTKKE]	-0.0392
EASNCFAIRHFENKFAVETLICGYISTNKLS [GYISTNKLS]	inactive
EASNCFAIRHFENKFAVETLICYYKSLMKGQ [YYKSLMKGQ]	inactive
EASNCFAIRHFENKFAVETLICHYMSHIDFW [HYMSHIDFW]	inactive
EASNCFAIRHFENKFAVETLICGYMVSSTRC [GYMVSSTRC]	inactive
EASNCFAIRHFENKFAVETLICRYRISQYEL [RYRISQYEL]	inactive
EASNCFAIRHFENKFAVETLICYYRPDVWPT [YYRPDVWPT]	3.51
EASNCFAIRHFENKFAVETLICWYSCLGANR [WYSCLGANR]	4.04
EASNCFAIRHFENKFAVETLICDYYGRFETS [DYYGRFETS]	inactive

Same assay, conditions: random library (experiment): 3

Variant	amyloid nucleation score
EASNCFAIRHFENKFAVETLICYASDLMRYI [YASDLMRYI]	-0.359
EASNCFAIRHFENKFAVETLICLCCRTEMYA [LCCRTEMYA]	7.06
EASNCFAIRHFENKFAVETLICTCDMAVNAG [TCDMAVNAG]	inactive
EASNCFAIRHFENKFAVETLICTCKTNFFSR [TCKTNFFSR]	4.66
EASNCFAIRHFENKFAVETLICMCRSQFNGR [MCRSQFNGR]	4.64
EASNCFAIRHFENKFAVETLICLDAIGLSAS [LDAIGLSAS]	inactive
EASNCFAIRHFENKFAVETLICMDGESYQAL [MDGESYQAL]	0.454
EASNCFAIRHFENKFAVETLICLDIGMDKVS [LDIGMDKVS]	-0.294
EASNCFAIRHFENKFAVETLICWDKPRMGFV [WDKPRMGFV]	inactive
EASNCFAIRHFENKFAVETLICVDRFQAHML [VDRFQAHML]	0.758
EASNCFAIRHFENKFAVETLICLDSGTLEGR [LDSGTLEGR]	inactive
EASNCFAIRHFENKFAVETLICTDVDLRHLW [TDVDLRHLW]	2.75
EASNCFAIRHFENKFAVETLICCECDVKGFW [CECDVKGFW]	8.06
EASNCFAIRHFENKFAVETLICLEGRSPLYI [LEGRSPLYI]	0.227
EASNCFAIRHFENKFAVETLICWEHTPRSVP [WEHTPRSVP]	1.59
EASNCFAIRHFENKFAVETLICVEPGYQCRR [VEPGYQCRR]	inactive
EASNCFAIRHFENKFAVETLICRERGGRAVQ [RERGGRAVQ]	inactive
EASNCFAIRHFENKFAVETLICYEYAPKGAA [YEYAPKGAA]	inactive
EASNCFAIRHFENKFAVETLICYFGFDIDRV [YFGFDIDRV]	5.47
EASNCFAIRHFENKFAVETLICPFGTLIEPH [PFGTLIEPH]	2.4
EASNCFAIRHFENKFAVETLICGFLWYCLWK [GFLWYCLWK]	inactive
EASNCFAIRHFENKFAVETLICLFTRRGRAT [LFTRRGRAT]	2.81
EASNCFAIRHFENKFAVETLICQFVKRPAIS [QFVKRPAIS]	inactive
EASNCFAIRHFENKFAVETLICFGDVLRPGN [FGDVLRPGN]	6.42
EASNCFAIRHFENKFAVETLICPGGEECLIW [PGGEECLIW]	inactive
EASNCFAIRHFENKFAVETLICTGKRSRNEH [TGKRSRNEH]	inactive
EASNCFAIRHFENKFAVETLICTGNLSRLVP [TGNLSRLVP]	0
EASNCFAIRHFENKFAVETLICQGSFVAWPG [QGSFVAWPG]	7
EASNCFAIRHFENKFAVETLICRHKDCLDVR [RHKDCLDVR]	inactive
